For 84 variants, self-cleavage results are on record in the RNAGym collection of RNA variant scans (doi:10.7554/elife.90254).

Read counts are not given, so values of variants with three or more changes are uncertain.

To fix the notation:
B1: OR4K15 (parent)
chain: GUUAACGGUCAUAGGCCAUGGAAACUAGGAGCACCAUUUCGCUGCCAGUGAAGAAAUGAACAAAGAAAAUCUGGGCCAGGCAGGCAUCAAAAGAAAUAGUCUUGCGCUCAACCAGAAAGUCUGUAAUCAUUUUAAGGGUA

In this data set the parent is B1. Briefly: self-cleavage, relative activity (ratio to wild type); higher = more cleavage; in vitro, sequencing; the parent is a self-cleaving ribozyme.
Regarding A51U A110G A116G, the self-cleavage is 0.04.
The value for U49C A94G U103C U120C was 0.42.
The value for A52G A55U A64G was 0.74; that for A52G A55G U108C U122G A126U was 0; that for A51C A78G A116G was 0.06.
Turning to U49G A91G A129G, the self-cleavage came out at 0.47.
The value for A52G A64G A69G A78G U87C A95G was 0.19.
In the case of U49C A66U A78U, the self-cleavage was determined as 0.22.
For U49G A116U U133A, the self-cleavage worked out at 0.27.
As for A51G A55G U97C, the self-cleavage was 0.41.
To U49G A56G A86U A92U U127G U131C belongs 1.64; to A52G G65A U70C U72C A98G C105U, 0.02.
Regarding U49C A116U U131C, the self-cleavage stood at 0.03.
G50A U122C U127A: the self-cleavage was determined as 1.11.
Regarding A52G A98U A118C, the self-cleavage is 1.07.
The value for A52C A62U U102A U132C was 0.54.
To A51G A68G A78G U127C belongs 0.02; to A52C A54G A92G A140C, 0.91.
To A51G A90G U133A belongs 1.02; to A51G U87A U102C, 2.17.
As to A51U U72A A118G, the self-cleavage worked out at 0.07.
The value for A52G U87C A111G A126G was 0; that for A52G A91U A118G was 2.13; that for A51G A59U U87C U127C was 0.5.
With A52G A60G A118U A135G, the self-cleavage was 0.43.
The value for A51G A82G A96G was 0.62.
Consider G50A A117G U122C, for which the self-cleavage worked out at 1.24.
To A52G A95G A96G U102C belongs 2.05; to A51U G80A U130C, 0.15.
On to A51U G115A A116U U124C, for which the self-cleavage was 0.01.
Turning to A51U A110G A129G, the self-cleavage is 0.22.
To A51U A89C A110G belongs 0.15; to A51G A55G U87C U122C, 1.07; to U49C U72A A82G A116G, 0.09.
The value for A51G A59G U72A A129G was 0.14.
The value for A51U A68U U100C A111G A140G was 0.02.
Consider U49C U100C U122C, for which the self-cleavage came to 1.51.
On to A51G A66U A69G, for which the self-cleavage was 0.99.
To A51G A111G U130C A135G belongs 0.03; to A51G U103G U132C, 0.02; to A52G A82U A91C, 0.06.
For U49C A129G U131C, the self-cleavage is 1.29.
In the case of U49C A82U A91C A95G U97C, the self-cleavage was found to be 0.04.
For the variant A51G A110G U132C, the self-cleavage was determined as 0.13.
The value for U49C C61U A94G U100C A126G U132C was 2.48; that for A51U A59U A78G U100A was 0.13.
To A52G A67G U70C U127C belongs 0.22; to A52G A62G A66G A86U, 1.71; to A51G A90G A125U U127C, 0.67.
The value for U49C U70C G84A A114G was 0.08; that for A52G A55G U57C A59G U120C U122C was 0.97; that for A51U U70C A111G was 0.04.
With U49C A64G A69U U72A A118G A126G, the self-cleavage turned out to be 0.33.
With A52G A68G U70C U132C, the self-cleavage worked out at 1.29.
Consider U49C A94G A135G, for which the self-cleavage was found to be 1.96.
To A51G A68G U87C U127C belongs 0.38.
To A51U U132C A135U belongs 1.72; to A51U A82G U127C U130C, 0.15; to A51U A62G U133C, 0.89.
The value for A51G U100C U108A A116G was 0.
With A52G A56G A78U A86G U120C, the self-cleavage was found to be 0.11.
Regarding A51G A86G U87C U102C, the self-cleavage turned out to be 1.33.
The value for U49C U87A U102C was 1.09.
The value for A51G A68G G123A U130C was 1.28.
To A52G A86U A116G U130C U131C belongs 0.37.
With A51G U72A A78U, the self-cleavage was 0.35.
The value for A52G U100C C109A was 0.69.
The value for A52G A68G A69U U70C U102C was 0.35; that for A51G A59G G65U U100C U122A U133C was 1.03; that for A51G U108A U131C was 0.
The value for A52G U70A U120C was 0.34; that for A52G A89U U127C U139A was 0.97.
For A51G U102A G104U, the self-cleavage came to 0.01.
The value for A52G A55G A117G U122C was 0.66.
Turning to A51U U87C A114U U139C, the self-cleavage was 0.04.
To A51C G119U A126G belongs 1.13.
The value for A52G A86G G137A was 1.44; that for U49C A78U A90G was 0.27.
For the variant A52G A59G U103C A116G A140C, the self-cleavage is 0.15.
The value for A51G A116G U139C was 1.05.
In the case of A52G A60G U70C A78U C81U A82G, the self-cleavage was 0.04.
On to A51G A95G U100C A110G, for which the self-cleavage is 0.25.
Regarding A52G A54G A66G, the self-cleavage is 0.78.
The value for A52G U72C G73U A78U was 0.13.
